Some of the results follow.
Legend:
Assay in all cases: glycan array binding signal (z-score within array); higher = stronger binding
Details in all cases: glycan notation: IUPAC condensed, linker removed; mutation: G182A
[1] = molecular target: Fuc(a1-2)[GalNAc(a1-3)]Gal(b1-4)GlcNAc(b1-3)Gal(b1-4)GlcNAc
Procedure, shortened: (§1)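 Glycan array data came from 3228 arrays in the Consortium for Functional Glycomics database, and only arrays with an available protein sequence were kept. Glycan names were put into IUPAC-condensed notation, and columns mapping to the same glycan were averaged. The binding signal is a within-array Z-score, averaged across arrays of one protein sequence run at different concentrations or buffers and across linkers. A negative Z-score can be read as non-binding.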

[2] = molecular target: Fuc(a1-2)[GalNAc(a1-3)]Gal(b1-4)GlcNAc(b1-3)Gal(b1-4)GlcNAc(b1-3)Gal(b1-4)GlcNAc
Procedure, shortened: as §1

[3] = molecular target: Fuc(a1-2)[GalNAc(a1-3)]Gal(b1-4)[Fuc(a1-3)]GlcNAc
Procedure, shortened: as §1

[4] = molecular target: Fuc(a1-2)[GalNAc(a1-4)]Gal(b1-4)GlcNAc
Procedure, shortened: as §1

[5] = molecular target: Fuc(a1-2)[GalNAc(b1-3)]Gal
Procedure, shortened: as §1

[6] = molecular target: Fuc(a1-3)GlcNAc
Procedure, shortened: as §1

[7] = molecular target: Fuc(a1-3)[Gal(b1-4)]Glc6S
Procedure, shortened: as §1

[8] = molecular target: Fuc(a1-3)[Gal(b1-4)]GlcNAc
Procedure, shortened: as §1

[9] = molecular target: Fuc(a1-3)[Gal(b1-4)]GlcNAc(b1-2)Man(a1-3)[Fuc(a1-3)[Gal(b1-4)]GlcNAc(b1-2)Man(a1-6)]Man(b1-4)GlcNAc(b1-4)GlcNAc
Procedure, shortened: as §1

[10] = molecular target: Fuc(a1-3)[Gal(b1-4)]GlcNAc(b1-3)Gal(b1-3)[Fuc(a1-4)]GlcNAc
Procedure, shortened: as §1

[11] = molecular target: Fuc(a1-3)[Gal(b1-4)]GlcNAc(b1-3)GalNAc
Procedure, shortened: as §1

[12] = molecular target: Fuc(a1-3)[Gal(b1-4)]GlcNAc(b1-4)Gal(b1-4)[Fuc(a1-3)]GlcNAc
Procedure, shortened: as §1

[13] = molecular target: Fuc(a1-3)[Gal(b1-4)]GlcNAc(b1-4)Gal(b1-4)[Fuc(a1-3)]GlcNAc(b1-4)Gal(b1-4)[Fuc(a1-3)]GlcNAc
Procedure, shortened: as §1

[14] = molecular target: Fuc(a1-3)[Gal(b1-4)]GlcNAc(b1-6)[Gal(b1-3)GlcNAc(b1-3)]Gal(b1-4)Glc
Procedure, shortened: as §1

[15] = molecular target: Fuc(a1-3)[Gal(b1-4)]GlcNAc6S
Procedure, shortened: as §1

[16] = molecular target: Fuc(a1-3)[Gal3S(b1-4)]GlcNAc
Procedure, shortened: as §1

[17] = molecular target: Fuc(a1-3)[Gal3S(b1-4)]GlcNAc6S
Procedure, shortened: as §1

[18] = molecular target: Fuc(a1-3)[GalNAc(b1-4)]GlcNAc
Procedure, shortened: as §1

[19] = molecular target: Fuc(a1-4)GlcNAc
Procedure, shortened: as §1

[20] = molecular target: Fuc(b1-3)GlcNAc
Procedure, shortened: as §1

[21] = molecular target: Gal(a1-2)Gal
Procedure, shortened: as §1

[22] = molecular target: Gal(a1-3)Gal
Procedure, shortened: as §1

[23] = molecular target: Gal(a1-3)Gal(b1-3)GlcNAc
Procedure, shortened: as §1

[24] = molecular target: Gal(a1-3)Gal(b1-3)GlcNAc(b1-2)Man(a1-3)[Gal(a1-3)Gal(b1-3)GlcNAc(b1-2)Man(a1-6)]Man(b1-4)GlcNAc(b1-4)GlcNAc
Procedure, shortened: as §1

[25] = molecular target: Gal(a1-3)Gal(b1-3)[Fuc(a1-4)]GlcNAc(b1-2)Man(a1-3)[Gal(a1-3)Gal(b1-3)[Fuc(a1-4)]GlcNAc(b1-2)Man(a1-6)]Man(b1-4)GlcNAc(b1-4)GlcNAc
Procedure, shortened: as §1

[26] = molecular target: Gal(a1-3)Gal(b1-4)Glc
Procedure, shortened: as §1

[27] = molecular target: Gal(a1-3)Gal(b1-4)GlcNAc
Procedure, shortened: as §1

[28] = molecular target: Gal(a1-3)Gal(b1-4)GlcNAc(b1-3)GalNAc
Procedure, shortened: as §1

[29] = molecular target: Gal(a1-3)Gal(b1-4)[Fuc(a1-3)]GlcNAc
Procedure, shortened: as §1

[30] = molecular target: Gal(a1-3)Gal(b1-4)[Fuc(a1-3)]GlcNAc(b1-2)Man(a1-3)[Gal(a1-3)Gal(b1-4)[Fuc(a1-3)]GlcNAc(b1-2)Man(a1-6)]Man(b1-4)GlcNAc(b1-4)GlcNAc
Procedure, shortened: as §1

[31] = molecular target: Gal(a1-3)GalNAc
Procedure, shortened: as §1

[32] = molecular target: Gal(a1-3)[Gal(a1-4)]Gal(b1-4)GlcNAc
Procedure, shortened: as §1

[33] = molecular target: Gal(a1-4)Gal(b1-3)GlcNAc(b1-2)Man(a1-3)[Gal(a1-4)Gal(b1-3)GlcNAc(b1-2)Man(a1-6)]Man(b1-4)GlcNAc(b1-4)GlcNAc
Procedure, shortened: as §1

[34] = molecular target: Gal(a1-4)Gal(b1-4)Glc
Procedure, shortened: as §1

[35] = molecular target: Gal(a1-4)Gal(b1-4)GlcNAc
Procedure, shortened: as §1

[36] = molecular target: Gal(a1-4)Gal(b1-4)GlcNAc(b1-2)Man(a1-3)[Gal(a1-4)Gal(b1-4)GlcNAc(b1-2)Man(a1-6)]Man(b1-4)GlcNAc(b1-4)GlcNAc
Procedure, shortened: as §1

[37] = molecular target: Gal(a1-4)Gal(b1-4)GlcNAc(b1-3)Gal(b1-4)Glc
Procedure, shortened: as §1

[38] = molecular target: Gal(a1-4)GlcNAc
Procedure, shortened: as §1

[39] = molecular target: Gal(a1-6)Glc
Procedure, shortened: as §1

[40] = molecular target: Gal(b1-2)Gal
Procedure, shortened: as §1

[41] = molecular target: Gal(b1-3)Gal
Procedure, shortened: as §1

[42] = molecular target: Gal(b1-3)Gal(b1-4)GlcNAc
Procedure, shortened: as §1

[43] = molecular target: Gal(b1-3)Gal(b1-4)GlcNAc(b1-2)Man(a1-3)[Gal(b1-3)Gal(b1-4)GlcNAc(b1-2)Man(a1-6)]Man(b1-4)GlcNAc(b1-4)GlcNAc
Procedure, shortened: as §1

[44] = molecular target: Gal(b1-3)GalNAc
Procedure, shortened: as §1

[45] = molecular target: Gal(b1-3)GalNAc(a1-3)[Fuc(a1-2)]Gal(b1-4)Glc
Procedure, shortened: as §1

B1: Gal 3 (Homo sapiens), P17931 (protein)
chain: MADNFSLHDALSGSGNPNPQGWPGAWGNQPAGAGGYPGASYPGAYPGQAPPGAYPGQAPPGAYHGAPGAYPGAPAPGVYPGPPSGPGAYPSSGQPSAPGAYPATGPYGAPAGPLIVPYNLPLPGGVVPRMLITILGTVKPNANILDFQRGNDVAFHFNPRFNENNRRVIVCNTKLDNNWAREERQSVFPFESGKPFKIQVLVEPDHFKVAVNDAHLLQYNHRVKKLNEISKLGISGDIDLTSASYTMI
In the case of B1, the “glycan array binding signal (z-score)” value [1] is reported as 2.87, the “glycan array binding signal (z-score)” value [2] is reported as 6.29 and the “glycan array binding signal (z-score)” value [3] is reported as -0.178. For the same binder, the “glycan array binding signal (z-score)” value [4] was -0.169, the “glycan array binding signal (z-score)” value [5] was -0.155 and the “glycan array binding signal (z-score)” value [6] was -0.173. The “glycan array binding signal (z-score)” value [7] was -0.19, the “glycan array binding signal (z-score)” value [8] was -0.185 and the “glycan array binding signal (z-score)” value [9] was -0.191. For the same binder, the “glycan array binding signal (z-score)” value [10] was -0.188, the “glycan array binding signal (z-score)” value [11] was -0.146 and the “glycan array binding signal (z-score)” value [12] was -0.151. For the same binder, the “glycan array binding signal (z-score)” value [13] was -0.196, the “glycan array binding signal (z-score)” value [14] was -0.187 and the “glycan array binding signal (z-score)” value [15] was -0.188. For the same binder, the “glycan array binding signal (z-score)” value [16] was -0.185, the “glycan array binding signal (z-score)” value [17] was -0.145 and the “glycan array binding signal (z-score)” value [18] was -0.19. For the same binder, the “glycan array binding signal (z-score)” value [19] was -0.194, the “glycan array binding signal (z-score)” value [20] was -0.157 and the “glycan array binding signal (z-score)” value [21] was -0.179. For the same binder, the “glycan array binding signal (z-score)” value [22] was -0.179, the “glycan array binding signal (z-score)” value [23] was -0.185 and the “glycan array binding signal (z-score)” value [24] was -0.176. For the same binder, the “glycan array binding signal (z-score)” value [25] was -0.186, the “glycan array binding signal (z-score)” value [26] was -0.193 and the “glycan array binding signal (z-score)” value [27] was -0.166. For the same binder, the “glycan array binding signal (z-score)” value [28] was -0.176, the “glycan array binding signal (z-score)” value [29] was -0.194 and the “glycan array binding signal (z-score)” value [30] was -0.187. The “glycan array binding signal (z-score)” value [31] was -0.185, the “glycan array binding signal (z-score)” value [32] was -0.191 and the “glycan array binding signal (z-score)” value [33] was -0.157. For the same binder, the “glycan array binding signal (z-score)” value [34] was -0.192, the “glycan array binding signal (z-score)” value [35] was -0.18 and the “glycan array binding signal (z-score)” value [36] was -0.196. The “glycan array binding signal (z-score)” value [37] was -0.131, the “glycan array binding signal (z-score)” value [38] was -0.188 and the “glycan array binding signal (z-score)” value [39] was -0.196. The “glycan array binding signal (z-score)” value [40] was -0.189, the “glycan array binding signal (z-score)” value [41] was -0.19 and the “glycan array binding signal (z-score)” value [42] was -0.155. The “glycan array binding signal (z-score)” value [43] was 0.651, the “glycan array binding signal (z-score)” value [44] was -0.188 and the “glycan array binding signal (z-score)” value [45] was -0.196.
